Laboratory results as given in ChEMBL document CHEMBL4888484, “Replenishing the malaria drug discovery pipeline: Screening and hit evaluation of the MMV Hit Generation Library 1 (HGL1) against asexual blood stage Plasmodium falciparum ,using a nano luciferase reporter read-out” (2022).
Out of some 150,000 compounds screened, about 540 (0.36%) showed an effect of 50% or more. This is one part of the list.

Each molecule was assayed on Plasmodium falciparum (assay: Primary screen in NF54 nanoGlo assay, in single point, at 2uM, 72h; a lower Z score goes with more inhibition). Conditions: timepoint 72 hour.
Assay type: functional, Erythrocyte

Row | Compound | % Inhibition | Z score
1 | c1ccc(C2CCN(c3ncnc4[nH]ccc34)CC2)nc1 | -11% | 1.41
2 | COc1ccc(Cc2ncnn2C2CCCCC2)cc1OC | 5% | -0.66
3 | CCn1ccnc1[C@H](C)NC(=O)c1ccn(C(C)C)n1 | 1% | -0.14
4 | COCC1(C(=O)N[C@H]2CN(c3ccc(C#N)cn3)C[C@@H]2C(C)C)CCC1 | 5% | -0.9
5 | CN1CCCCC[C@H]1C(=O)NCc1cccnc1N1CCN(c2ccccn2)CC1 | -6% | 1.1
6 | Cc1cn2nc(NC3CCCCCCC3)sc2n1 | -5% | 0.45
7 | Clc1ccc(Nc2nc(Nc3ccc(Cl)cc3)nc(Oc3ccccc3)n2)cc1 | 7% | -1.16
8 | Cc1nc(CNc2nnc(C3CC3)o2)nc2c1CCCC2 | -5% | 0.46
9 | Cc1[nH]c(=O)[nH]c(=O)c1CC(=O)NCCN1CCc2ccccc21 | 2% | -0.4
10 | CC(C)N1C[C@@H](O)C[C@H]1c1nnc2n1CCN(Cc1ccc(C(F)(F)F)cc1)C2 | -2% | 0.35
11 | CC(C)n1nccc1NC(=O)Cn1cc(C(F)(F)F)ccc1=O | 2% | -0.24
12 | CN(C)[C@@H](CNC(=O)Nc1cccs1)c1csc2ccccc12 | -8% | 1.16
13 | O=C(NC[C@H]1OC[C@@H](NCc2ccncc2)[C@@H]1O)C1CCCC1 | 3% | -0.38
14 | CCN(C(=O)CN1CCCC[C@H]1C(=O)O)c1ccccc1 | -4% | 0.69
15 | CC(C)[C@H](Cn1ccnn1)NC(=O)Cc1ccccc1Cl | 14% | -1.81
16 | O=C(CC1CCC1)N[C@@]1(CO)CCOC1 | -11% | 1.88
17 | CN(Cc1cscn1)C(=O)c1nn(Cc2ccccc2)c2c1CN(C(=O)c1ccncc1)CC2 | -4% | 0.7
18 | Cc1cc(C)cc(NC(=O)c2ccc(Cn3ccn4nc5c(c4c3=O)CCCC5)cc2)c1 | -18% | 1.7
19 | CCCn1cnnc1CN(C)S(=O)(=O)CCC | -15% | 1.66
20 | CN(Cc1cc(-c2ccccc2)on1)C[C@@H]1CCCN2CCCC[C@H]12 | -2% | 0.34
21 | Cc1cc2c(cc1C)N(CC(=O)Nc1ccc(F)cc1F)C(=O)CC(c1cccs1)=N2 | 2% | -0.2
22 | OCc1cc(C(F)(F)F)ccc1-c1cccc([C@@H]2COCCN2)c1 | -2% | 0.3

Row | Compound | % Inhibition | Z score
23 | O=C(NC1CCCC1)N1CCC[C@H]1c1cccs1 | 8% | -0.78
24 | CNC(=O)[C@H]1C[C@H](Oc2cccnc2)CN1S(=O)(=O)c1ccccc1C | -7% | 1.36
25 | Cc1cnc(CCNC(=O)Nc2ccc3ccc(=O)n(C)c3c2)c(C)c1 | -1% | 0.06
26 | CS(=O)(=O)N1CCC(n2cc(-c3ccsc3)nn2)CC1 | -12% | 1.5
27 | Cc1ccccc1-c1cc(NC(=O)C(=O)Nc2ccc(F)cc2OC(C)(C)C)n(C)n1 | 4% | -0.37
28 | O=C(c1ccc2nsnc2c1)N1CC(Nc2cccnn2)C1 | -10% | 1.53
29 | COc1cccc(-c2nnc(NC(=O)CCN(C(=O)C3CCCC3)[C@@H](C)c3ccccc3)s2)c1 | -7% | 0.71
30 | CC(C)c1nnc(-c2sccc2NC(=O)c2cc(F)ccc2Cl)o1 | -3% | 0.33
31 | C=CCNS(=O)(=O)c1cc(C)c(OCC)c(C)c1C | -28% | 3.3
32 | C[C@H](NC1CCC(=C2CCC2)CC1)c1ncn(C)n1 (some centres undefined) | 2% | -0.2
33 | O=c1[nH]nc2c(N3CC[C@H](NCc4ccc(F)cc4)C3)nccn12 | 38% | -4.84
34 | CC(C)(C)c1cc2nc(C(=O)O)cc(C3CC3)n2n1 | -20% | 2.63
35 | CN(C)c1ccc(C(=O)N2CC[C@H](NC(=O)OC(C)(C)C)C2)cc1 | -10% | 2.04
36 | O[C@H]1CCc2cnn(Cc3ccccn3)c2C1 | -3% | 0.52
37 | N#Cc1ccsc1NC(=O)CCN1CCC(O)CC1 | -4% | 0.53
38 | CO[C@@H](C)C(=O)N(Cc1ccncc1)C1CC1 | -10% | 1.46
39 | CN(CC#CCNC(=O)c1ccc(=O)[nH]c1)Cc1ccccc1 | 0% | 0.04
40 | O=S(=O)(c1ccc(Cl)cc1)N1CCO[C@H]1C(Cl)(Cl)Cl | -10% | 1.62
41 | N#C[C@@H]1CC[C@H](NC(=O)C2CC3CCC2CC3)C1 (some centres undefined) | -6% | 1.13
42 | CCc1nnc(-c2coc(S(=O)(=O)N3CCC(C)CC3)c2)o1 | -7% | 0.88
43 | CCOC[C@H]1CCN(Cc2ccc(CO)c3c2OC(F)(F)O3)C1 | -5% | 0.67
44 | CC[C@](C)(NC(=O)c1ccc(C)nc1)c1nc(C)cs1 | 7% | -0.87

Row | Compound | % Inhibition | Z score
45 | CC(C#N)CNC1CC2(C1)CC2NC(=O)OC(C)(C)C (centres undefined) | -11% | 1.48
46 | CCCCCn1c(NCc2ccccc2O)nc2ccccc21 | -4% | 0.51
47 | Clc1ccc(CCNc2nc3cc(Cl)c(Cl)cc3n3cnnc23)cc1 | 14% | -2.24
48 | Nc1ncnc(N2Cc3cccc(Br)c3C2)c1Cl | 0% | 0
49 | Cc1ccc(NCc2noc(C3CC3)n2)cc1OCC1CCOCC1 | -5% | 0.75
50 | CCCc1cc(C(=O)N[C@H]2CCOC[C@@H]2OCC(=O)N(C)C)no1 | -13% | 2.05
51 | CC1CCC(C(=O)N2CCC(OCc3ccc(F)cc3)CC2)O1 (centres undefined) | 1% | -0.22
52 | O=C(CNC(=O)c1ccc(F)cc1F)Nc1nc2cc3c(cc2s1)OCCO3 | -22% | 1.89
53 | CC(C)Cc1cnc(NC(=O)NCCN(C)C)s1 | -9% | 1.61
54 | Cc1cc(C(=O)N[C@@H](CO)c2ccnn2C)nn1C(F)F | -4% | 0.48
55 | O=C(CCc1ccccc1)N1CC(N2C(=O)COC2=O)C1 | -6% | 0.66
56 | Cc1nc(C)c(C(=O)Nc2cccc3c2CCN3S(C)(=O)=O)o1 | -8% | 1.02
57 | CC(Nc1ccn(-c2ccccc2)n1)C1CCOC1 (centres undefined) | -15% | 1.29
58 | Cc1ccc(-c2noc([C@@H]3COCCO3)n2)c(F)c1 | 1% | -0.29
59 | CCn1cnnc1CNC(=O)Nc1ccc(COC2CCCC2)cc1 | -16% | 1.98
60 | CCN(CC)c1cc(C)nc2nc(CN3CCN(c4ccccc4F)CC3)nn12 | -15% | 1.96
61 | Cc1scc(C(=O)Nc2nccs2)c1C | -11% | 1.04
62 | CCS(=O)(=O)N[C@@H](C)c1ccc(OCC2CC2)c(F)c1 | -4% | 0.62
63 | O=C(c1ccccc1O)N1N=C(C2CCCCC2)C[C@]1(O)C(F)(F)F | -7% | 1.28
64 | COc1ccccc1C(=O)N1CCC2(CC1)C(=O)N(CC(=O)NCc1ccccc1)CN2c1ccccc1 | 8% | -0.76
65 | CN1CCC(NC2(c3cccc(F)c3)CC2)CC1 | -6% | 0.72
66 | O=C(Nc1ccc(F)cc1F)N1CCC[C@H]1c1cccs1 | -8% | 1.58

Row | Compound | % Inhibition | Z score
67 | N#Cc1ccc(C(=O)Nc2cccc(C(=O)N3CCC[C@H]3C(=O)NC3CCCC3)c2)cc1 | 10% | -1.11
68 | O=C(COc1ccccc1)Nc1ccc(C(=O)NC[C@H]2COc3ccccc3O2)cc1 | -15% | 2
69 | CC(C)(C)OC(=O)N[C@H]1CCN(Cc2ccc(F)cc2C#N)C1 | 1% | -0.25
70 | Cc1cc(=O)[nH]c(N2CCC(NC(=O)c3c(C)n[nH]c3C)CC2)n1 | -5% | 0.83
71 | COc1cccc(CNC2=NCCNC23CCN(S(=O)(=O)c2c(C)cc(C)cc2C)CC3)c1 | 10% | -1.24
72 | CCc1sc2nc(-c3ccccc3)cn2c1-c1ccc(Br)cc1 | -10% | 1.34
73 | CCn1ccnc(Oc2cnc3ccccc3c2)c1=O | -13% | 1.8
74 | O=C([C@@H]1CCCO1)N1CCCc2cccc(Cl)c21 | 14% | -1.53
75 | CCc1ccc(CN2CCC3(CC2)C[C@@H]3C(=O)N2CCCN(C)CC2)cc1 | -12% | 1.57
76 | Cn1nccc1COc1ccccc1N | 34% | -3.88
77 | CCc1cccc(S(=O)(=O)N(C)[C@@]2(C#N)CCOC2)c1 | 0% | -0.02
78 | C[C@@H](Cc1ccc(F)c(Br)c1)C(=O)Nc1nnn[nH]1 | 4% | -0.52
79 | CC1CCN(Cc2nc3cc(NC(=O)C4CCCCC4)ccc3n2C)CC1 | -18% | 1.63
80 | Cc1csc([C@H]2CCCN(Cc3ncccc3C(=O)O)C2)n1 | 0% | -0.04
81 | CCCC(CCC)S(=O)(=O)Cc1nc(-c2ccco2)no1 | -4% | 0.42
82 | CCCN(CCC)C(=O)Nc1ccc(OC)c(OC)c1 | -1% | 0.19
83 | c1cncc(CN(Cc2ccco2)CC2CCOCC2)c1 | -7% | 0.94
84 | COc1ccc([N+]2=C3CCCCN3C[C@]2(O)c2ccc(C)cc2)cc1 | -9% | 1.1
85 | COc1cccc([C@H]2OCC(C)(C)n3c(-c4ccc(C)cc4)c4c(=O)n(C)c(=O)n(C)c4c32)c1 | 10% | -1.8
86 | COC(=O)c1ccc(NC(=O)N2CCCCC[C@H]2c2cccc(C)c2)cc1 | -14% | 1.82
87 | Cc1c(-c2ccccc2)[nH]c2c(CNC(=O)C3CCN(C)CC3)cc(Cl)cc12 | 0% | 0.07
